# Laboratory results as given in PubChem BioAssay (Tox21).
# Inconclusive means that the source gave no clear call. Such entries were picked first, then a sample of the others. For some assays here: Where the call is inconclusive, the potency comes from a doubtful curve fit. Calls of active or inactive are those of the source. Unless noted, calls follow the shape of the dose curve; as a rule, active = well fitted curve in the direction sought with a large enough effect in the repeat runs; inconclusive = weak or mixed curves; inactive = no such curve, though single readings can be large; an effect the other way counts as inactive or inconclusive.
# Tests used:
# [1] = qHTS assay for identifying genotoxic compounds that show differential cytotoxicity against isogenic chicken DT40 cell lines with known DNA damage response pathways - Rad54/Ku70 mutant cell line (AID 743015); conditions: DT40 Rad54/Ku70 mutant viability, CellTiter-Glo, 40 h; activity change, negative = cytotoxicity: at 66.8 µM (top of the series); also: potency is read from the fitted curve at half-maximal effect; nearly all actives have a fitted effect of over 60% in size
# [2] = biological target: Thyrotropin receptor (Homo sapiens) (UniProt P16473); assay: qHTS assay to identify small molecule agonists of the thyroid stimulating hormone receptor (TSHR) signaling pathway (AID 1224843; calls by dose curve; also: nearly all actives have a fitted effect of over 45% in size; also: potency is read from the fitted curve at half-maximal effect; as to activation: % is scaled to controls: 0 for no effect and ±100 for the full control effect); conditions: TSHR-HEK293 cells, cAMP HTRF, agonist mode, 30 min; activation: at 92.4 µM (top of the series) unless noted
# Chain of UniProt P16473 (P16473 whole entry, looked up): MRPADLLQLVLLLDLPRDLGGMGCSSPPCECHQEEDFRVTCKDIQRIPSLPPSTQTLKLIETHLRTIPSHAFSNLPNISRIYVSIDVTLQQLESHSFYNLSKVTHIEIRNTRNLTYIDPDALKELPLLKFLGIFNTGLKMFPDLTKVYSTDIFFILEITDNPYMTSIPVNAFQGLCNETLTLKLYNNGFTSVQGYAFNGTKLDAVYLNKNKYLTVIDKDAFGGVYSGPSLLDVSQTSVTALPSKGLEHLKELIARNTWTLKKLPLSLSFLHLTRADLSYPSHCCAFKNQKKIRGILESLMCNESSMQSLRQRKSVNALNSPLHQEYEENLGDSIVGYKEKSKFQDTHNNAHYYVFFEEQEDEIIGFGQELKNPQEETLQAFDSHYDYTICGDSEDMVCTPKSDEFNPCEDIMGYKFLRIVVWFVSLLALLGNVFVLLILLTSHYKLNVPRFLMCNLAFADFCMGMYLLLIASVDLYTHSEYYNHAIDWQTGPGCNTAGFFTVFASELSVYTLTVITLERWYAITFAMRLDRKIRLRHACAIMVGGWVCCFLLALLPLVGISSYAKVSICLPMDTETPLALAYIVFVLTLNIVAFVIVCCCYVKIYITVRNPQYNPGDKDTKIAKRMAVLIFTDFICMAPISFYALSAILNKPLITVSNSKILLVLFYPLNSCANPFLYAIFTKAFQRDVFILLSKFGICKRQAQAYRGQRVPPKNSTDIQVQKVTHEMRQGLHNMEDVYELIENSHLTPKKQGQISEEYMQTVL
# Method in brief: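 TSHR-HEK293 cells in agonist mode, 30 min room-temperature step, then cAMP measured by competitive HTRF (cAMP-d2 with anti-cAMP cryptate) after 1 h at room temperature. Tested at 15 concentrations in triplicate.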
# [3] = qHTS RealTime-Glo MT Cell Viability Assay in HEK293 cells - 32 hour (AID 1224868); also: nearly all actives have a fitted effect of over 50% in size; also: potency is read from the fitted curve at half-maximal effect
# Method in brief: (§1)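 Tox21 10K qHTS, HEK293, 600 cells/well, RealTime-Glo reagent co-dispensed with cells; 5 h preincubation, compound by pintool, 37 C, luminescence at 0–40 h.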
# [4] = qHTS RealTime-Glo MT Cell Viability Assay in HEK293 cells - 40 hour (AID 1224874); conditions: RealTime-Glo luminescence; max response: active compounds read low; also: potency is read from the fitted curve at half-maximal effect; nearly all actives have a fitted effect of over 50% in size
# Method in brief: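 Viable HEK293 cells reduce a cell-permeant prosubstrate; the product diffuses out and is consumed by NanoLuc in the medium to give light. Compounds went in after a 5 h incubation and plates were read over the treatment course.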
# [5] = qHTS RealTime-Glo MT Cell Viability Assay in HEK293 cells - 24 hour (AID 1224886); also: potency is read from the fitted curve at half-maximal effect; nearly all actives have a fitted effect of over 50% in size
# Method in brief: as §1
# [6] = qHTS assay to identify small molecule agonists of the estrogen receptor beta (ER-beta) signaling pathway - cell viability counter screen (AID 1259380); also: nearly all actives have a fitted effect of over 30% in size; also: potency is read from the fitted curve at half-maximal effect; as to activity change, negative = cytotoxicity: % is scaled to controls: 0 for no effect and ±100 for the full control effect
# Method in brief: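 CellTiter-Glo read, 30 min RT, same wells as bla assay; cells ER-beta-UAS-bla HEK293T; 16 hr compound, 37C; medium 2% charcoal-stripped FBS.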
# [7] = qHTS assay to identify small molecule antagonists of the progesterone receptor (PR) signaling pathway - cell viability counter screen (AID 1346798); also: nearly all actives have a fitted effect of over 50% in size; also: potency is read from the fitted curve at half-maximal effect
# Method in brief: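 In the same plates used for the beta-lactamase readout, cell viability of compound- and R5020-treated PR-UAS-bla HEK293T cells (16 hr, 37C) was assessed by CellTiter-Glo luminescence.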
# [8] = qHTS assay for small molecule agonists of the p53 signaling pathway (AID 651631; calls by dose curve; also: nearly all actives have a fitted effect of over 15% in size; also: potency is read from the fitted curve at half-maximal effect); conditions: HCT-116 p53RE-bla reporter, beta-lactamase FRET ratio, 16 h; activation: at 73.3 µM (top of the series) unless noted
# Method in brief: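 Beta-lactamase reporter activity under p53 response elements was quantified in HCT-116 cells by FRET fluorescence, following 16 h incubation with test compounds at 37 °C and 2 h substrate development at room temperature.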
# [9] = qHTS assay to identify small molecule antagonists of the peroxisome proliferator-activated receptor gamma (PPARg) signaling pathway - cell viability counter screen (AID 743194); conditions: PPARg-bla HEK293H viability, CellTiter-Glo luminescence, 17 h; Potency: co-treated with 50 nM rosiglitazone unless noted; activity change, negative = cytotoxicity: at 62.6 µM (top of the series), co-treated with 50 nM rosiglitazone unless noted; also: nearly all actives have a fitted effect of over 55% in size; also: potency is read from the fitted curve at half-maximal effect
# Method in brief: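 Cytotoxicity counter screen in PPARg-bla HEK293H cells, same wells as reporter assay. Compounds plus 50 nM rosiglitazone (final) for 17 h at 37 C, then viability read by CellTiter-Glo luminescence.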
# [10] = qHTS RealTime-Glo MT Cell Viability Assay in HEK293 cells - 16 hour (AID 1224872)
# Method in brief: as §1
# [11] = biological target: Estrogen receptor beta (Homo sapiens) (UniProt Q92731); assay: qHTS assay to identify small molecule antagonists of the estrogen receptor beta (ER-beta) signaling pathway (AID 1259378; active = well fitted inhibition curve with a large enough effect in the signal ratio in the repeat runs, not every such curve was filed as active; inconclusive = weak or mixed curves, or effect the other way; inactive = no such curve, though single readings can be large or run the other way; the % refers to the signal ratio; also: potency is read from the fitted curve at half-maximal effect); conditions: ER-beta-UAS-bla HEK293T, beta-lactamase FRET ratio, 16 h; activity, negative = inhibition: at 92.4 µM (top of the series) unless noted
# Chain of UniProt Q92731 (Q92731 whole entry, looked up): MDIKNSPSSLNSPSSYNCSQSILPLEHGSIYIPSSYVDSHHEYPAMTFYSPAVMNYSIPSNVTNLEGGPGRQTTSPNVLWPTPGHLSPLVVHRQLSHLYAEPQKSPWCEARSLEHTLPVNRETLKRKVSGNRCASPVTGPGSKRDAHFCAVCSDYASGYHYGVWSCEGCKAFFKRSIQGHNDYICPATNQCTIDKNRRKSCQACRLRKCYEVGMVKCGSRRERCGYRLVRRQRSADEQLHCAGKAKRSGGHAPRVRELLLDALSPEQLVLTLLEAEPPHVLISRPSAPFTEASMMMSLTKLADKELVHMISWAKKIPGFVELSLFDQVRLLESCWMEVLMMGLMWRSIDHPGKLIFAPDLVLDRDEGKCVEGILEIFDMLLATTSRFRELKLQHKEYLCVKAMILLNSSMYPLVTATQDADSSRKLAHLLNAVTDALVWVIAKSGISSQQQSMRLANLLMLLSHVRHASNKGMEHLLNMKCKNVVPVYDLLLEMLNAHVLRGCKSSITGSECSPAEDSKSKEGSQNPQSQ
# Method in brief: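 ER-beta-UAS-bla HEK293T cells in 2% charcoal-stripped FBS medium treated with compound plus 1nM final 17-beta-estradiol for 16 hr at 37C. Beta-lactamase reporter read by FRET substrate fluorescence after 2 hours at room temperature.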
# [12] = qHTS assay to identify small molecule agonists of the estrogen receptor alpha (ER-alpha) signaling pathway in the presence of an antagonist - cell viability counter screen (AID 1259386);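 also: cells exposed to compounds for 22 h at 37 °C before the viability read; nearly all actives have a fitted effect of over 30% in size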; also: potency is read from the fitted curve at half-maximal effect
# Method in brief: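 Viability counter screen using VM7Luc4E2 (full-length ER-alpha, four ERE-luciferase). The cells were treated with compounds alongside ICI-182,780 10.0nM for 22hr, and live-cell protease fluorescence was quantified with CellTiter-Fluor.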
# [13] = biological target: Estrogen receptor beta (Homo sapiens) (UniProt Q92731); assay: qHTS assay to identify small molecule agonists of the estrogen receptor beta (ER-beta) signaling pathway (AID 1259377; active = well fitted activation curve with a large enough effect in the signal ratio in the repeat runs, not every such curve was filed as active; inconclusive = weak or mixed curves, or effect the other way; the % refers to the signal ratio; also: % is scaled to controls: 0 for no effect and ±100 for the full control effect); conditions: ER-beta-UAS-bla HEK293T, beta-lactamase FRET ratio, 16 h; activation: at 92.4 µM (top of the series) unless noted
# Method in brief: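 Reporter cells (HEK293T, ER-beta-UAS-bla) receive compounds or DMSO after a 6 hr pre-incubation. They then incubate 16 hr at 37C/5% CO2, and fluorescence from LiveBLAzer B/G substrate is measured after 2 hours at room temperature.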
# [14] = qHTS assay to identify small molecule agonists of the retinoic acid receptor (RAR) signaling pathway (AID 1159553); conditions: C3RL4 RARE luciferase reporter, agonist, 6 h; activation: at 73.3 µM (top of the series) unless noted; also: potency is read from the fitted curve at half-maximal effect
# Method in brief: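 Reporter readout comes from luciferase under RARE control in C3RL4 cells; compound exposure lasts 6 hr at 37 C in 5% CO2, and luminescence is recorded following a 30 min room-temperature incubation with reagent.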
# [15] = biological target: Peroxisome proliferator-activated receptor gamma (Homo sapiens) (UniProt P37231); assay: qHTS assay to identify small molecule agonists of the peroxisome proliferator-activated receptor gamma (PPARg) signaling pathway (AID 743094; active = well fitted activation curve with a large enough effect in the signal ratio in the repeat runs, not every such curve was filed as active; inconclusive = weak or mixed curves, or effect the other way; inactive = no such curve, though single readings can be large or run the other way; the % refers to the signal ratio; also: % is scaled to controls: 0 for no effect and ±100 for the full control effect); conditions: HEK293H PPARg-UAS-bla, beta-lactamase FRET ratio, 17 h; activation: at 57 µM (top of the series) unless noted
# Chain of UniProt P37231 (P37231 whole entry, looked up): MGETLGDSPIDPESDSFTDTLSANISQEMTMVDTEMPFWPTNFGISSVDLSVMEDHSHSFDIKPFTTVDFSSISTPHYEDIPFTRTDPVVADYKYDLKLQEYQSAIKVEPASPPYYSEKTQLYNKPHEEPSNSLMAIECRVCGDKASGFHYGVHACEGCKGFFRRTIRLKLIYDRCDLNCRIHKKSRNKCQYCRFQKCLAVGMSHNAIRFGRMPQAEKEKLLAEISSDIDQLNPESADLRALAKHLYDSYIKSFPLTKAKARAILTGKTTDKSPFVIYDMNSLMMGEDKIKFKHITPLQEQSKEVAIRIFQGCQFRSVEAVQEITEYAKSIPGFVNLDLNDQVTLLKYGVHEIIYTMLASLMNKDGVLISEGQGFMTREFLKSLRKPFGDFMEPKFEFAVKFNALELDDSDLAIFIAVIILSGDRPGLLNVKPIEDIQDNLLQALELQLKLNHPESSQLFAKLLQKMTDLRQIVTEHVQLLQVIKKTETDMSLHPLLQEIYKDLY
# Method in brief: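 Compounds dissolved in DMSO were added to PPARg UAS-bla HEK293H cells for 17 h at 37C, and reporter expression was quantified by fluorescence intensity after 1 h with LiveBLAzer B/G FRET substrate.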
# [16] = qHTS assay to identify small molecule antagonists of the vitamin D receptor (VDR) signaling pathway - cell viability counter screen (AID 743225); conditions: VDR-bla HEK293T viability, CellTiter-Glo luminescence, 16 h; viability change, negative = cytotoxic: at 61 µM (top of the series) unless noted; also: nearly all actives have a fitted effect of over 50% in size; also: potency is read from the fitted curve at half-maximal effect
# Method in brief: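 Compounds were pinned onto VDR-bla HEK 293T cells together with 1-alpha,25-dihydroxyvitamin D3 at 3 nM final. After 16 h at 37C and 5% CO2 plus the reporter readout, cell viability was measured by CellTiter-Glo luminescence (30 min, room temperature).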
# [17] = biological target: Nuclear receptor subfamily 1 group I member 2 (Homo sapiens) (UniProt O75469); assay: Human pregnane X receptor (PXR) small molecule agonists, qHTS assay (AID 1346982); also: potency is read from the fitted curve at half-maximal effect; nearly all actives have a fitted effect of over 35% in size
# Chain of UniProt O75469 (O75469 whole entry, looked up): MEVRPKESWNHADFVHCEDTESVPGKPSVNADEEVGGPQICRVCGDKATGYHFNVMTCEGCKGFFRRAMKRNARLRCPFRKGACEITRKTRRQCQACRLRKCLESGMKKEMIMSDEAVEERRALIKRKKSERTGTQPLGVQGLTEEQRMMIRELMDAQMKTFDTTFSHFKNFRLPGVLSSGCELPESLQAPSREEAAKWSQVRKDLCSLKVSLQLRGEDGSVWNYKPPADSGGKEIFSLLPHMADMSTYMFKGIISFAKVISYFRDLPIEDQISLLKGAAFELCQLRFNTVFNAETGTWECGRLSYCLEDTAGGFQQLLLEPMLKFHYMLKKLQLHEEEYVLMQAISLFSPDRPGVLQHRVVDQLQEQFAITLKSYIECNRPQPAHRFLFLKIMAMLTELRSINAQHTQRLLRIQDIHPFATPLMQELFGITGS
# Method in brief: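 Compound-induced hPXR transactivation of a CYP3A4 luciferase reporter was scored in HepG2 PXR-Luc cells over 24 hr at 37 C, 5% CO2, by luminescence.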
# [18] = biological target: Peroxisome proliferator-activated receptor delta (Homo sapiens) (UniProt Q03181); assay: qHTS assay to identify small molecule antagonists of the peroxisome proliferator-activated receptor delta (PPARd) signaling pathway (AID 743215; active = well fitted inhibition curve with a large enough effect in the signal ratio in the repeat runs, not every such curve was filed as active; inconclusive = weak or mixed curves, or effect the other way; inactive = no such curve, though single readings can be large or run the other way; the % refers to the signal ratio;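 also: cells stimulated with agonist L165041 at 300 nM final during compound exposure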; also: potency is read from the fitted curve at half-maximal effect); conditions: HEK293H PPARd-UAS-bla, beta-lactamase FRET ratio, antagonist, 17 h; ratio activity, negative = inhibition: at 62 µM (top of the series) unless noted
# Chain of UniProt Q03181 (Q03181 whole entry, looked up): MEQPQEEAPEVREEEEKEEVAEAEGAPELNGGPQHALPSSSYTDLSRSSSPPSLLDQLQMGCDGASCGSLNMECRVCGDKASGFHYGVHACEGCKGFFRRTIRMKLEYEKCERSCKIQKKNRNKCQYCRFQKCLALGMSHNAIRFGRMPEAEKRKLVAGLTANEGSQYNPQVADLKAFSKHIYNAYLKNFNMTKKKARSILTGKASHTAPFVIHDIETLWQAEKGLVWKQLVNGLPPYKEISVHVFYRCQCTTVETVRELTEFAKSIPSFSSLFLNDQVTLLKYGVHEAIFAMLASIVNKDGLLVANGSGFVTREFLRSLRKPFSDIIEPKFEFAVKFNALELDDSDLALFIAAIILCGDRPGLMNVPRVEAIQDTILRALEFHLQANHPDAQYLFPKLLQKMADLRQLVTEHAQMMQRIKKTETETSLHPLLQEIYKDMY
# Method in brief: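 HEK293H UAS-bla, PPARd; agonist L165041 300 nM final with cpd in DMSO; 37 C 17 h; FRET substrate, RT 2 h; fluorescence intensity.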
# [19] = qHTS assay to identify small molecule agonists of H2AX - cell viability counter screen (AID 1224847; calls by dose curve; also: potency is read from the fitted curve at half-maximal effect; nearly all actives have a fitted effect of over 30% in size)
# Method in brief: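 Compounds tested at 15 concentrations were incubated 3 hr at 37C with wild-type CHO-K1 cells; cellular ATP-based luminescence (CellTiter-Glo) indicated viability.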
# [20] = qHTS assay to identify small molecule antagonists of the peroxisome proliferator-activated receptor delta (PPARd) signaling pathway - cell viability counter screen (AID 743213); conditions: PPARd-bla HEK293H viability, CellTiter-Glo luminescence, 17 h; viability change, negative = cytotoxic: at 62 µM (top of the series) unless noted; also: nearly all actives have a fitted effect of over 50% in size; also: potency is read from the fitted curve at half-maximal effect
# Method in brief: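 Viability counter-screen, qHTS format: PPARd-bla HEK293H, L165041 300 nM final, 17 h compound exposure at 37 C, CellTiter-Glo luminescence after 30 min RT.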
# Tags tell the direction and shape of the fitted curve or compound fluorescence and quenching.
compound,measurement,setting,value
COc1ccc(C(=O)c2c(C)n(CCN3CCOCC3)c3ccccc23)cc1,Potency,[1],active: 29.8 µM
same,activation,[2],inconclusive: 6.87% [at 42.5 µM]
same,Potency,[3],"inconclusive: 21.3 µM [cytotoxic, single point]"
same,Potency,[4],"inconclusive: 23.9 µM [cytotoxic, single point]"
same,Potency,[5],"inconclusive: 21.3 µM [cytotoxic, single point]"
same,Potency,[6],inactive
same,Potency,[7],"inconclusive: 15 µM [rising, full curve, poor fit]"
CC(C)=CCN1CC[C@@]2(C)c3cc(O)ccc3C[C@@H]1[C@@H]2C,Potency,[8],inactive
same,Potency,[9],inactive
same,Potency,[3],"inconclusive: 48.2 µM [cytotoxic, partial curve]"
same,Potency,[10],"inconclusive: 27.1 µM [cytotoxic, partial curve]"
same,Potency,[4],"inconclusive: 48.2 µM [cytotoxic, partial curve]"
same,Potency,[5],"inconclusive: 48.2 µM [cytotoxic, partial curve]"
same,Potency,[11],"inconclusive: 24 µM [inhibitor, partial curve]"
same,Potency,[6],inactive
same,Potency,[12],"inconclusive: 12 µM [cytotoxic, full curve]"
same,Potency,[7],inactive
O=NN1CCN(N=O)CC1,Potency,[9],inactive
same,activation,[13],inconclusive: 7.03%
O=C(CCCCl)c1ccc(F)cc1,Potency,[14],active: 26.6 µM
same,Potency,[3],inactive
same,Potency,[6],inactive
C=CC1CC=CCC1 (stereo unspecified),Potency,[15],inactive
same,Potency,[16],"inconclusive: 55 µM [rising, single point]"
same,Potency,[7],"inconclusive: 30.7 µM [rising, partial curve, poor fit]"
same,Potency,[17],"inconclusive: 34.4 µM [activator, partial curve]"
C=CCSSCC=C,Potency,[8],inconclusive: 77 µM [activator]
same,Potency,[9],"inconclusive: 1.74 µM [rising, full curve, poor fit]"
same,activation,[2],inconclusive: 1.68%
same,Potency,[7],"inconclusive: 27.3 µM [cytotoxic, single point]"
c1ccc2c(c1)oc1ccccc12,Potency,[9],inactive
same,activation,[13],inconclusive: 13.4%
O=C(Nc1ccccc1)N(Cc1ccc(Cl)cc1)C1CCCC1,activation,[15],inconclusive: -16.6%
same,Potency,[9],active: 21.9 µM
same,"ratio activity, negative = inhibition",[18],inconclusive: -41.2%
same,Potency,[16],inactive
same,Potency,[2],active: 48.6 µM
same,Potency,[19],"inconclusive: 113 µM [cytotoxic, single point]"
same,Potency,[10],active: 21.9 µM
same,Potency,[5],active: 21.9 µM
same,Potency,[11],active: 24.3 µM
same,Potency,[6],"inconclusive: 10.9 µM [cytotoxic, partial curve, poor fit]"
same,Potency,[12],"inconclusive: 68.6 µM [cytotoxic, partial curve]"
CCOP(=S)(OCC)Oc1cnc2ccccc2n1,Potency,[1],"inconclusive: 68.7 µM [cytotoxic, single point]"
same,activation,[15],inconclusive: 3.53%
same,Potency,[18],"inconclusive: 21.9 µM [rising, partial curve, poor fit]"
same,activation,[14],inconclusive: 3.37% [phenotype inactive]
same,Potency,[19],"inconclusive: 127 µM [cytotoxic, single point]"
same,Potency,[3],"inconclusive: 43.6 µM [cytotoxic, partial curve]"
same,Potency,[10],"inconclusive: 24.5 µM [cytotoxic, partial curve]"
same,Potency,[4],"inconclusive: 34.7 µM [cytotoxic, partial curve]"
same,Potency,[5],"inconclusive: 38.9 µM [cytotoxic, partial curve]"
same,Potency,[13],inactive
same,Potency,[11],inconclusive: 61.1 µM [inhibitor]
same,Potency,[6],"inconclusive: 61.1 µM [cytotoxic, single point]"
CCOC(=O)N(C)N=O,Potency,[8],inactive
same,Potency,[1],"inconclusive: 61.1 µM [cytotoxic, partial curve, poor fit]"
c1ccc2nc(N3CCNCC3)ccc2c1,Potency,[1],"inconclusive: 33.5 µM [cytotoxic, single point]"
same,Potency,[15],inactive
same,Potency,[20],"inconclusive: 23.7 µM [cytotoxic, partial curve, poor fit]"
same,Potency,[16],inactive
same,Potency,[12],"inconclusive: 9.44 µM [cytotoxic, partial curve, poor fit]"
same,Potency,[7],"inconclusive: 33.5 µM [cytotoxic, single point]"
CNC(=O)N(C)c1nc2ccccc2s1,Potency,[14],active: 2.43 µM
same,Potency,[6],"inconclusive: 61.1 µM [cytotoxic, partial curve]"
same,Potency,[12],inactive
CNC(=O)Oc1c(C(C)(C)C)cc(C)cc1C(C)(C)C,Potency,[8],"inconclusive: 24.3 µM [falling, partial curve, poor fit]"
same,Potency,[1],"inconclusive: 43.3 µM [cytotoxic, partial curve, poor fit]"
same,Potency,[20],inactive
same,Potency,[18],inactive
same,Potency,[14],inactive
